Reference: article PMC9355564, “A network of cytosolic (co)chaperones promotes the biogenesis of mitochondrial signal-anchored outer membrane proteins” (eLife, 2022)
These are yes or no findings as the source states them, for the method shown. For part of these data: Binding seen in cells or lysates may run through a third protein. Some binding calls cover weakened binding; strength is not graded here. For part of these data: Tags and fused reporters may be left off the sequences shown.

By UniProt entry, the sequences of proteins in these tests, tags left out. Residues count along the entry.
UniProt P02769, residues 25-607: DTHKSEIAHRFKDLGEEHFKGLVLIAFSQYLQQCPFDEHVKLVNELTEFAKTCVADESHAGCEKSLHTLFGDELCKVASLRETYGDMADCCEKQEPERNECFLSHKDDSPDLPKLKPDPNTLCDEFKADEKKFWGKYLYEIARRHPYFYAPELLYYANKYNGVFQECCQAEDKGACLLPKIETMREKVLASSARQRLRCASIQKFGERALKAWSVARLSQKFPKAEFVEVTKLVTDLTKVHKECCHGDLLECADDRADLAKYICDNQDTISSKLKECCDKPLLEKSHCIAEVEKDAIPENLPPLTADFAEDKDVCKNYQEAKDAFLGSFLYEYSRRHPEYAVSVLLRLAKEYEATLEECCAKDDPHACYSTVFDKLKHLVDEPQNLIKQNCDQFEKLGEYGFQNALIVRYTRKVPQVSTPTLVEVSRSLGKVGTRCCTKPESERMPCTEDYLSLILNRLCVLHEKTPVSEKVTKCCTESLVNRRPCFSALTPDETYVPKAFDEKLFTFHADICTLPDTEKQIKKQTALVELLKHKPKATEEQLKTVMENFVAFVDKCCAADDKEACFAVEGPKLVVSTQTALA

What was measured:
[1] = target: T1, TAMRA-labeled Tom70 peptide, residues 1-32 (S. cerevisiae) (UniProt P07213); assay: fluorescence polarisation; fluorescence anisotropy, 2 µM TAMRA-labeled peptide, 30 °C; single additions of 10 µM Ssa1, 30 µM Sis1, 10 µM GST-Tom70, GST, BSA or 1 mM ATP alone or in the indicated order; both purified
T1 sequence (peptide, Tetramethylrhodamine (TAMRA), position not stated): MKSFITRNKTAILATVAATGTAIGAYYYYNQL

[2] = target: T2, TAMRA-labeled Mcr1 peptide, residues 1-39 (S. cerevisiae) (UniProt P36060); assay: as above
T2 sequence (peptide, Tetramethylrhodamine (TAMRA), position not stated): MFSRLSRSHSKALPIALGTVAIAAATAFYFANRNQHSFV

[3] = target: T3, Tom70-3HA (full length) (S. cerevisiae), P07213; assay: pull-down; C-terminally 3HA-tagged proteins translated in vitro in yeast extract (from WT cells, or from cells depleted of Ydj1 and Sis1), pulled down with anti-HA beads; co-purified endogenous proteins in the eluate detected by western blot; settings: remark: other sources report otherwise
T3 chain: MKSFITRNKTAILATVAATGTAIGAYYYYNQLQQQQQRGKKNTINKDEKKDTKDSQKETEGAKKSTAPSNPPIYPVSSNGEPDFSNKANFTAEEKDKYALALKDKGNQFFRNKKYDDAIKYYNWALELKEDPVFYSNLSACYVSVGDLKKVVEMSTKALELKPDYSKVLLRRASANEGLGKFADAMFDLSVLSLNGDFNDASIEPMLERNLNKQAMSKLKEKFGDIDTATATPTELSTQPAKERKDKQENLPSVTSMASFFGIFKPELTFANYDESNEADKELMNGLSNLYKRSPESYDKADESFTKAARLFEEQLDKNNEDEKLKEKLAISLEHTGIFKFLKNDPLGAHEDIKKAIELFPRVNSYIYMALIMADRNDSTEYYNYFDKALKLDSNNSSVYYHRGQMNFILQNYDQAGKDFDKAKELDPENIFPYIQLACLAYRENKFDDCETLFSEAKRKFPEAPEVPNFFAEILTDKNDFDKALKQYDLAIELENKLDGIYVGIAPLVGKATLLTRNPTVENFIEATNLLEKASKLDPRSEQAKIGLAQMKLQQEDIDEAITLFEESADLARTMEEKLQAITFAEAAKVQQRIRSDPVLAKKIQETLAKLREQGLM

[4] = target: T4, Tom20-3HA (full length) (S. cerevisiae), P35180; assay: as above; settings: remark: other sources report otherwise
T4 chain: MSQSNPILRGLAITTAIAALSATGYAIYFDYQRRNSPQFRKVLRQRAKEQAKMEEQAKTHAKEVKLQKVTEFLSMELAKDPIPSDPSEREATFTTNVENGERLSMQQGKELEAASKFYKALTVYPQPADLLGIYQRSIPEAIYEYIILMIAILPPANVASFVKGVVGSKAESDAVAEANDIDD

[5] = target: T5, GST-Tom70(46-617) (S. cerevisiae) (UniProt P07213); assay: pull-down; purified GST, GST-Tom20 or GST-Tom70 on glutathione sepharose beads blocked with 5% BSA, mixed with cleared in vitro translation reactions (yeast extract) of HA-tagged proteins; ATP added every 30 min; 20 mM Hepes, 100 mM NaCl, 1 mM MgCl2, pH 7.25; anti-HA blot; only the target purified
T5 sequence: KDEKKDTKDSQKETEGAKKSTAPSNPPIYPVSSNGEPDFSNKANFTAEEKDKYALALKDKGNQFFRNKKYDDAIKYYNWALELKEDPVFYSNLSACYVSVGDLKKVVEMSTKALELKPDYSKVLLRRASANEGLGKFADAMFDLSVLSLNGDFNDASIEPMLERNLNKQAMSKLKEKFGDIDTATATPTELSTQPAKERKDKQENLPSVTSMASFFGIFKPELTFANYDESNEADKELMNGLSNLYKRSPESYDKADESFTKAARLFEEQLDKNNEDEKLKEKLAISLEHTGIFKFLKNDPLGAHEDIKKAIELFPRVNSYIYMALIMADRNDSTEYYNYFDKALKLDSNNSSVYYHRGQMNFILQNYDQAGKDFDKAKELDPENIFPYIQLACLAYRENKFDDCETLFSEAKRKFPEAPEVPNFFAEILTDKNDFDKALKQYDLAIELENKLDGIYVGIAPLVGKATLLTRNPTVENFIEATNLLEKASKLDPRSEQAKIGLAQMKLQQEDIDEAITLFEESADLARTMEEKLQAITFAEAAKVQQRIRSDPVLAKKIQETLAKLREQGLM

[6] = target: GST-Tom20(35-183) (S. cerevisiae) (UniProt P35180); assay: as above

bovine serum albumin (from UniProt P02769 25-607)
binding [1]: no binding (tested: 30 µM) | binding [2]: no binding (tested: 30 µM)

B1: Ydj1, P25491 1-409 (protein)
chain: MVKETKFYDILGVPVTATDVEIKKAYRKCALKYHPDKNPSEEAAEKFKEASAAYEILSDPEKRDIYDQFGEDGLSGAGGAGGFPGGGFGFGDDIFSQFFGAGGAQRPRGPQRGKDIKHEISASLEELYKGRTAKLALNKQILCKECEGRGGKKGAVKKCTSCNGQGIKFVTRQMGPMIQRFQTECDVCHGTGDIIDPKDRCKSCNGKKVENERKILEVHVEPGMKDGQRIVFKGEADQAPDVIPGDVVFIVSERPHKSFKRDGDDLVYEAEIDLLTAIAGGEFALEHVSGDWLKVGIVPGEVIAPGMRKVIEGKGMPIPKYGGYGNLIIKFTIKFPENHFTSEENLKKLEEILPPRIVPAIPKKATVDECVLADFDPAKYNRTRASRGGANYDSDEEEQGGEGVQCASQ
binding [3]: binds | binding [4]: binds

B2: Mcr1-3HA (full length) (natural protein, S. cerevisiae, UniProt P36060 1-302, looked up)
chain: MFSRLSRSHSKALPIALGTVAIAAATAFYFANRNQHSFVFNESNKVFKGDDKWIDLPISKIEEESHDTRRFTFKLPTEDSEMGLVLASALFAKFVTPKGSNVVRPYTPVSDLSQKGHFQLVVKHYEGGKMTSHLFGLKPNDTVSFKGPIMKWKWQPNQFKSITLLGAGTGINPLYQLAHHIVENPNDKTKVNLLYGNKTPQDILLRKELDALKEKYPDKFNVTYFVDDKQDDQDFDGEISFISKDFIQEHVPGPKESTHLFVCGPPPFMNAYSGEKKSPKDQGELIGILNNLGYSKDQVFKF
notes: Mcr1, S. cerevisiae, signal-anchored mitochondrial outer membrane protein (Mcr1mom is its outer membrane isoform); also called Mcr1-FL; yk-Mcr1-3HA; source: in vitro translated in yeast extract; not shown: 3HA, C-terminal, kept
binding [5]: binds | binding [6]: binds
